Potency data for 91 molecules are collected here from PubChem BioAssay AID360 (National Center for Advancing Translational Sciences (NCATS), 2006).

SMILES strings stand for the structures. Hit rate of the full screen: of about 48,000 compounds, about 550 (1.1%) were called active. Inconclusive results (about 4%) are left out. No stated cut-off is given here; in the data, active means potency below about 15 µM; inconclusive means mostly about 16 µM to 33 µM; inactive means weaker than that. Some of the results follow.
Potency means the concentration at half of the fitted maximal effect.

UniProt P04062, sequence (P04062 whole entry, looked up): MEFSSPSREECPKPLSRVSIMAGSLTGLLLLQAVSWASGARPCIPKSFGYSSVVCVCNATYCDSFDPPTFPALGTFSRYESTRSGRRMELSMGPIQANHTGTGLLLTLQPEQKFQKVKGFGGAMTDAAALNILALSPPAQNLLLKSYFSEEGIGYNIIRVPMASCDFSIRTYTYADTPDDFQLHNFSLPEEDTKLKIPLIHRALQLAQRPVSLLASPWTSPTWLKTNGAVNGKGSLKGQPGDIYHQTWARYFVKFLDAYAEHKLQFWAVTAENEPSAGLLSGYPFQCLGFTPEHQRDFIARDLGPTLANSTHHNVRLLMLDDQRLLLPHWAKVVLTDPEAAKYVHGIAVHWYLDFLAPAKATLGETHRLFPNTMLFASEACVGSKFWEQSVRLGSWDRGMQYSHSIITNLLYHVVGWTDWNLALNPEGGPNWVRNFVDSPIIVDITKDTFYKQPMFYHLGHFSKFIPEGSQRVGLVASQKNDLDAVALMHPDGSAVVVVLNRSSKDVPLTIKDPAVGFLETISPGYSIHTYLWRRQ

This test concerns the target Lysosomal acid glucosylceramidase (Homo sapiens) (UniProt P04062). Kind of test: Glucocerebrosidase.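 Further: the screen sought inhibitors.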 The settings on record: purified enzyme, resorufin glucoside fluorescence (screen aimed at inhibitors), 20 min; series mostly up to 77 µM. The essentials:
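Normal human glucocerebrosidase (0.2 nM final) was assayed with resorufin β-D-glucopyranoside (30 uM final) in 50mM citric acid/KH2PO4, 10mM sodium taurocholate, 0.01% tween-20, pH 5.9. Compounds were titrated; fluorescence (Ex 548, Em 600) read after 20 min at RT.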
As for `O=C(CSc1nc2ccccc2c(=O)n1CC1CCCO1)N1CCN(c2ccccc2)CC1` (stereo unspecified), the Potency was inactive: > 76.9 µM.

As to `CCn1c(C(=O)N2CCCC(C(=O)O)C2)cc2sccc21` (stereo unspecified), the Potency was inactive: > 76.9 µM.

As to `COc1ccc(CCNC(=O)c2c[nH]c3ccccc3c2=O)cc1OC`, the Potency is inactive: > 76.9 µM.

Consider `CC(C(N)=O)N1C(=O)C2C3C=CC(C3)C2C1=O` (stereo unspecified), for which the Potency was inactive: > 76.9 µM.

As for `Cc1c(NC(=O)CSc2nnc3sc4ccccc4n23)c(=O)n(-c2ccccc2)n1C`, the Potency is inactive: > 76.9 µM.

Regarding `O=C(NCc1ccccc1)c1c(O)c2cccc3c2n(c1=O)CCC3`, the Potency was inactive: > 76.9 µM.

Consider `COc1ccc(-c2noc(CCC(=O)Nc3ccc(C)c(C)c3)n2)cc1`, for which the Potency is inactive: > 76.9 µM.

Regarding `CC(C(=O)NCCCN1CCOCC1)n1cccc1C(=O)c1ccccc1` (stereo unspecified), the Potency is inactive: > 76.9 µM.

On to `CCN(C(C)=O)c1nnc(CSc2nc3ccccc3s2)s1`, for which the Potency was inactive: > 76.9 µM.

For the molecule `Nc1scc(-c2ccncc2)c1Cl`, the Potency is inactive: > 76.9 µM.

Take `CCCOc1c(OC)cccc1C1CC(=O)Nc2cc3c(cc21)OCCO3` (stereo unspecified): the Potency was inactive: > 76.9 µM.

`CCC1CCCCN1C(=O)Cn1c(=O)oc2ccccc21` (stereo unspecified): the Potency is inactive: > 76.9 µM.

For the molecule `COc1ccccc1C1C(C(=O)c2cc3ccccc3o2)=C(O)C(=O)N1CCN(C)C` (stereo unspecified), the Potency was inactive: > 76.9 µM.

Turning to `CC(C)=CCCC(C)CN1CCC(O)CC1` (stereo unspecified), the Potency is inactive: > 76.9 µM.

`COC(=O)c1ccccc1NC(=O)c1cccc(NC(=O)c2ccc(Br)o2)c1C`: the Potency is inactive: > 76.9 µM.

As to `CC(=O)c1c(C)[nH]c(C(=O)OCc2nnc(-c3ccccc3)o2)c1C`, the Potency was inactive: > 76.9 µM.

Consider `O=C(O)CCSc1nnc(-c2ccncc2)n1-c1ccccc1`, for which the Potency was inactive: > 76.9 µM.

On to `CCCCn1c(CN(Cc2ccccc2)Cc2ccccc2)nc2c1c(=O)n(C)c(=O)n2C`, for which the Potency is inactive: > 76.9 µM.

As for `Cc1ccccc1NS(=O)(=O)c1ccc(F)cc1`, the Potency was inactive: > 76.9 µM.

In the case of `C=CCn1c(SCC(=O)c2cc(C)n(C(C)COC)c2C)nc2sc(C)c(C)c2c1=O` (stereo unspecified), the Potency is inactive: > 76.9 µM.

Take `CCNCC(O)COCC(O)CNCC` (stereo unspecified): the Potency was inactive: > 76.9 µM.

On to `CCn1c(N2CCN(CC(=O)c3c(C)n(C)c4ccccc34)CC2)nc2c1c(=O)[nH]c(=O)n2C`, for which the Potency is inactive: > 76.9 µM.

For `O=C(CSc1nnnn1-c1ccccc1)c1cc2ccccc2oc1=O`, the Potency is inactive: > 76.9 µM.

Turning to `COc1ccc(OCc2nn3c(-c4ccco4)nnc3s2)cc1`, the Potency is inactive: > 76.9 µM.

Consider `O=C(COC(=O)c1ccc(Br)o1)NCCCc1ccccc1`, for which the Potency is inactive: > 76.9 µM.

As for `c1ccc(NCCCNc2ccccc2)cc1`, the Potency was inactive: > 76.9 µM.

`CSc1nc(N)c(C#N)c(-c2ccc(Cl)cc2)c1C#N`: the Potency is inactive: > 76.9 µM.

Consider `c1csc(CSc2nnc3sc4ccccc4n23)c1`, for which the Potency is inactive: > 76.9 µM.

Take `COc1ccc(CCNC(=O)CSC2=Nc3ccccc3C3=NC(C(C)C)C(=O)N23)cc1OC` (stereo unspecified): the Potency was inactive: > 76.9 µM.

Consider `COc1cc(NC(=O)C2CCCN2C(=O)OCc2ccccc2)cc(OC)c1` (stereo unspecified), for which the Potency entry is “inactive”.

As for `O=C(CCCN1C(=O)c2ccccc2C1=O)NCCC1=CCCCC1`, the Potency was inactive: > 76.9 µM.

As to `Cc1ccccc1-n1c(C)nnc1SCC(=O)N1CC(=O)Nc2ccccc21`, the Potency is inactive: > 76.9 µM.

For the molecule `O=C(CC(=O)NCc1cccnc1)NCc1cccnc1`, the Potency was inactive: > 76.9 µM.

In the case of `CC(=O)Nc1c(C(=O)O)oc2ccc(Cl)cc12`, the Potency was inactive: > 76.9 µM.

With `O=C(COc1cnc2ccccc2n1)NCCC1=CCCCC1`, the Potency was inactive: > 76.9 µM.

For the molecule `Cc1ccccc1CS(=O)(=O)CCC(=O)N1CCN(c2ccc(N3CCOCC3)nn2)CC1`, the Potency is inactive: > 76.9 µM.

Consider `O=C(CSc1n[nH]c(=O)[nH]c1=O)c1ccccc1`, for which the Potency was inactive: > 76.9 µM.

For the molecule `Cc1cccn2c(=O)c(C=Nc3c(C)n(C)n(-c4ccccc4)c3=O)c(N3CCCC3)nc12`, the Potency is inactive: > 76.9 µM.

On to `CCOC(=O)C(C(=O)OCC)[C@@H]1CS(=O)(=O)C[C@H]1C(C(=O)OCC)C(=O)OCC`, for which the Potency was inactive: > 76.9 µM.

With `Cc1cc2n(n1)C(c1ccc3c(c1)OCO3)Nc1ccccc1-2` (stereo unspecified), the Potency was inactive: > 76.9 µM.

Take `O=S(=O)(c1ccccc1)N1CCN(Cc2ccccc2C(F)(F)F)CC1`: the Potency was inactive: > 76.9 µM.

For `CCOC(=O)CSc1nc2ccccc2c(=O)n1CC1CCC(C(=O)NCc2ccco2)CC1` (stereo unspecified), the Potency is inactive: > 76.9 µM.

As to `CN(C)S(=O)(=O)c1ccc2oc(SCC(=O)NCC(F)(F)F)nc2c1`, the Potency was inactive: > 76.9 µM.

`Cc1ccc(C2C3=C(CCCC3=O)Nc3nc(SCC(=O)NCc4ccco4)[nH]c(=O)c32)cc1` (stereo unspecified): the Potency is inactive: > 76.9 µM.

In the case of `C=CCn1c(SCC(=O)Nc2cccc(C(=O)OC)c2)nnc1C(C)NC(=O)c1cccs1` (stereo unspecified), the Potency is inactive: > 76.9 µM.

In the case of `COC(=O)c1ccccc1NC(=O)c1ccc2c(c1)C(=O)N(Cc1ccco1)C2=O`, the Potency was inactive: > 76.9 µM.

On to `Cc1cc(C)c2c(N)c(C(=O)N3CCCCCC3)sc2n1`, for which the Potency is inactive: > 76.9 µM.

For `CCN1C(=O)c2cccc3c(S(=O)(=O)Nc4ccccc4OC)ccc1c23`, the Potency was inactive: > 76.9 µM.

On to `c1ccc(-c2nnc(CN3CCC4(CC3)OCCO4)o2)cc1`, for which the Potency is inactive: > 76.9 µM.

Turning to `CC(=O)N=c1sc2ccccc2n1C`, the Potency is inactive: > 76.9 µM.

Take `CCOC(=O)c1sc(NC(=O)CSc2nc3c(cc2C#N)CCCCCC3)c(C#N)c1C`: the Potency was inactive: > 76.9 µM.

As for `Cc1ccc(-c2csc3nc(C)n(-n4c(C)ccc4C)c(=O)c23)o1`, the Potency was inactive: > 76.9 µM.

For `Cc1nnc(SCc2cc(=O)[nH]c(N3CCCCC3)n2)s1`, the Potency is inactive: > 76.9 µM.

In the case of `O=C(CN1CCN(C(=O)c2cccc(F)c2)CC1)Nc1ccccc1F`, the Potency is inactive: > 76.9 µM.

For `CCOC(=O)N1CCC(NC(=O)C2CCCN(C(=O)N3CCOc4ccccc43)C2)CC1` (stereo unspecified), the Potency was inactive: > 76.9 µM.

Consider `C=C(C)COc1ccc(-c2ncncc2Oc2ccc(OC)cc2)c(O)c1`, for which the Potency is inactive: > 76.9 µM.

As to `Cc1cc(Cl)c2c(c1)[C@]1(C(=O)N2)[C@@H]2C(=O)N(Cc3ccccc3)C(=O)[C@@H]2[C@@H]2CCCN21`, the Potency result is “inactive”.

Take `Cc1noc(C)c1C(=O)NC(C)c1ccc2c(c1)OCO2` (stereo unspecified): the Potency was inactive: > 76.9 µM.

For the molecule `CCOC(=O)C1=C(CN2CCOCC2)NC(=O)NC1c1cc(C)ccc1C` (stereo unspecified), the Potency was inactive: > 76.9 µM.

On to `COc1ccc(C)cc1S(=O)(=O)N(CC(=O)O)c1ccc(F)cc1`, for which the Potency was inactive: > 76.9 µM.

`Cc1csc(NC(=O)Cn2cnnn2)n1`: the Potency is inactive: > 76.9 µM.

Turning to `Cn1c(=O)n(Cc2ccc(Cl)cc2)c(=O)c2c1nc1n2CCN1Cc1ccco1`, the Potency is inactive: > 76.9 µM.

In the case of `CCOC(=O)Nc1ccc2c(C)cc(=O)oc2c1`, the Potency was inactive: > 76.9 µM.

In the case of `CCCCCn1c(-c2ccco2)nc2nc3ccccc3nc21`, the Potency is inactive: > 76.9 µM.

On to `Cc1onc(-c2ccccc2Cl)c1C(=O)NCC(=O)O`, for which the Potency is inactive: > 76.9 µM.

With `CCc1cc(=O)oc2cc(C)cc(OC(=O)c3ccco3)c12`, the Potency was inactive: > 76.9 µM.

As to `Cc1cccc(C)c1NC(=O)CSc1nnc(-c2ccncc2)n1Cc1ccco1`, the Potency was inactive: > 76.9 µM.

Consider `Cc1c(C(=O)OC(C)C)[nH]c2c1C(=O)CCC2`, for which the Potency was inactive: > 76.9 µM.

Regarding `O=C(O)c1ccc(Cl)c(S(=O)(=O)N2CCCCCC2)c1`, the Potency is inactive: > 76.9 µM.

In the case of `Cc1cc(=O)[nH]c(SCC(=O)N2c3ccccc3CC2C)n1` (stereo unspecified), the Potency is inactive: > 76.9 µM.

Consider `Cc1ccc(C)c(OCCCC(=O)O)c1`, for which the Potency was inactive: > 76.9 µM.

`c1ccc(-n2nnnc2SCc2cccc3nsnc23)cc1`: the Potency is inactive: > 76.9 µM.

Take `Cc1cc(=O)oc(C)c1C(=O)NCCCN1C(C)CCCC1C` (stereo unspecified): the Potency is inactive: > 76.9 µM.

With `CNC(=O)c1cc2c(=O)n3cccc(C)c3nc2n1C`, the Potency is inactive: > 76.9 µM.

For the molecule `O=C(CN1CCCCC1)NCCNC(=O)CN1CCCCC1`, the Potency is inactive: > 76.9 µM.

As to `N#Cc1nc(-c2ccco2)oc1N1CCN(C(c2ccccc2)c2ccccc2)CC1`, the Potency is inactive: > 76.9 µM.

On to `O=C(c1ccco1)N1CCCN(C(=O)c2ccco2)CC1`, for which the Potency is inactive: > 76.9 µM.

As for `O=C(CCn1c(=O)oc2ccccc21)N1CCc2ccccc21`, the Potency was inactive: > 76.9 µM.

`CC1CCN(S(=O)(=O)c2ccc3c(c2)c(=O)c(C(=O)N2CCCCC2)cn3C)CC1`: the Potency is inactive: > 76.9 µM.

On to `CC1(C)CC(=O)C(CC(=O)NC(=O)NCc2ccccc2)=C(O)C1`, for which the Potency was inactive: > 76.9 µM.

On to `CCOc1ccc2[nH]c(=O)c(CN(CCOC)C(=O)N3CCOCC3)cc2c1`, for which the Potency is inactive: > 76.9 µM.

As for `COc1ccc(CNC(=O)C2COc3ccccc3O2)cc1` (stereo unspecified), the Potency was inactive: > 76.9 µM.

Consider `O=C(CCCn1c(=O)[nH]c2ccsc2c1=O)NCc1cccs1`, for which the Potency is inactive: > 76.9 µM.

`Cc1ccc(C(C)C)c(Oc2nnnn2-c2ccccc2)c1`: the Potency is inactive: > 76.9 µM.

For `CCCCNC(=O)CCn1nc(-c2ccccc2)ccc1=O`, the Potency was inactive: > 76.9 µM.

Regarding `CCC1(CC)NC(=O)N(CC(=O)OCn2nnc3ccccc3c2=O)C1=O`, the Potency is inactive: > 76.9 µM.

On to `c1cnc(Oc2ccc3oc4ccccc4c3c2)nc1`, for which the Potency was inactive: > 76.9 µM.

Regarding `CCC(=O)N1CCc2cc(Br)cc(S(=O)(=O)NCCN3CCCCC3CC)c21` (stereo unspecified), the Potency was inactive: > 76.9 µM.

Consider `Cc1[nH]nc2c1C1(C(=O)N(Cc3ccc(Cl)cc3)c3ccccc31)C(C#N)=C(N)O2` (stereo unspecified), for which the Potency was inactive: > 76.9 µM.

Take `CCOc1ccc(NC(=O)N(C2CCCCCC2)C2CCN(C(C)=O)CC2)cc1`: the Potency was inactive: > 76.9 µM.

Consider `O=C1OCCC1Sc1nc(-c2ccccc2)cs1` (stereo unspecified), for which the Potency was inactive: > 76.9 µM.
